# Laboratory results from PubChem BioAssay AID2100 (National Center for Advancing Translational Sciences (NCATS), 2009).
# The campaign covered roughly 300,000 compounds. About 1,200 (0.4%) were called active. This list was built around the results that the source calls inconclusive (neither active nor inactive); the mix of calls is not that of the screen. The call rests on the fitted dose curve; in most records, active means well fitted inhibition curve with a large enough effect; inconclusive means small, poorly fitted or top-dose-only effect, or another doubt; inactive means no such curve, though single readings can be large or run the other way. A potency beside an inconclusive call is a rough fit, not a confirmed value.
# Target: Lysosomal alpha-glucosidase (Homo sapiens) (UniProt P10253)
# Assay: qHTS Assay for Inhibitors and Activators of Human alpha-Glucosidase Cleavage of Glycogen
# Settings: recombinant GAA, glycogen substrate, Amplex Red glucose oxidase fluorescence; series mostly up to 76.4 µM
# Outline: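 qHTS, 1536-well; enzyme 4 nM final; cpd up to 77 uM; substrate bovine liver glycogen 30 ug; 50 mM citrate/phosphate pH 5.0, 0.01% Tween-20; 37 C, 40 min; Amplex Red detection 45 min RT; Hill fit → AC50.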
# Potency means the concentration at half of the fitted maximal effect.
row,Structure (SMILES),Potency
1,Nc1ccc2nc(-c3cccc(-c4nc5ccc(N)cc5[nH]4)n3)[nH]c2c1,"inconclusive: 44.7 µM [inhibitor, single point]"
2,c1ccc(-c2noc(-c3ccc4c(c3)OCO4)n2)nc1,inactive
3,Cc1c(NC2(c3nnnn3-c3ccc(Br)cc3)CCCCC2)c(=O)n(-c2ccccc2)n1C,"inconclusive: 35.5 µM [inhibitor, partial curve]"
4,Cc1cc(C(F)(F)F)nn1CC(=O)NNC(=S)Nc1ccc(F)cc1,active: 39.8 µM
5,CCN(C(=O)c1coc(=O)c(Br)c1)c1ccc2c(c1)OCO2,active: 17.6 µM
6,S=C(c1ccc(-c2ccc(Cl)cc2Cl)o1)N1CCCCC1,inactive
7,O=C(O)c1cc(N/N=C/c2ccc(-c3ccccc3)cc2)ccc1Cl,"inconclusive: 3.52 µM [inhibitor, single point]"
8,CC(C)Cn1c(=O)c2sccc2n2c(CCCC(=O)NCCc3ccccc3)nnc12,inactive
9,CCN1CCN(c2cc3c(cc2F)c(=O)c(S(=O)(=O)c2ccc(OC)cc2)cn3CC)CC1,inactive
10,COc1ccccc1-n1c(CNC(=O)c2ccco2)nnc1SCC(=O)Nc1nccs1,"inconclusive: 15.8 µM [inhibitor, partial curve]"
11,CSc1nc(SCC(N)=O)c2c3c(sc2n1)CN(C)CC3,"inconclusive: 50.1 µM [activator, single point]"
12,Cc1ccc(/C=N/n2c(-c3ccco3)n[nH]c2=S)cc1,"inconclusive: 39.8 µM [inhibitor, single point]"
13,CC1=CC(c2ccc(Cl)cc2)n2nc(NS(=O)(=O)c3ccc(C)cc3)nc2N1 (stereo not given),"inconclusive: 28.2 µM [activator, partial curve]"
14,COc1cc(/C=N/NC(=O)CC2C(=O)NN=C2C)ccc1O (stereo not given),"inconclusive: 15.8 µM [inhibitor, partial curve]"
15,Cc1ccc(CN(C(=O)COc2ccc(Cl)c(C)c2)C2CCS(=O)(=O)C2)o1 (stereo not given),"inconclusive: 8.91 µM [inhibitor, partial curve]"
16,COc1ccccc1CNC(=O)CN1C(=O)COc2ccc(S(=O)(=O)N3CCC(C)CC3)cc21,inactive
17,Cc1ccn2c(Nc3ccc4c(c3)OCO4)c(-c3ccc(N(C)C)cc3)nc2c1,"inconclusive: 14.1 µM [inhibitor, partial curve]"
18,COc1ccc(S(=O)(=O)N(C)C2CCN(C)CC2)cc1,"inconclusive: 39.8 µM [inhibitor, single point]"
19,CCOc1ccc(NCc2cccn2-c2nnc(N3CCC(C(=O)NCCCN4CCCCC4C)CC3)s2)cc1 (stereo not given),"inconclusive: 50.1 µM [inhibitor, single point]"
20,[N-]=[N+]=NC[C@H](c1ccccc1)N1CCN(Cc2ccccc2)CCC1=O,"inconclusive: 25.1 µM [inhibitor, partial curve]"
21,Cc1ccc(C)c(NC(=S)/C(=C(\[O-])c2ccc(Cl)s2)[n+]2ccccc2)c1,inactive
22,Cc1cc2c(cc1C)NC(CC(=O)Nc1ccccc1)C(=O)N2 (stereo not given),"inconclusive: 44.7 µM [activator, single point]"
23,Cc1ccc(O)c(NC(=O)c2ccc(Br)c(S(=O)(=O)N3CCCCC3)c2)c1,"inconclusive: 35.5 µM [inhibitor, partial curve]"
24,O=C(O)c1ccccc1NC1CCCCC1NS(=O)(=O)c1ccccc1 (stereo not given),"inconclusive: 35.5 µM [inhibitor, single point]"

row,Structure (SMILES),Potency
1,N#Cc1ccsc1NC(=O)CN1CCN(c2ccc(O)cc2)CC1,"inconclusive: 8.91 µM [inhibitor, partial curve]"
2,CCc1ccccc1N(CC(=O)NC1CCCCC1)C(=O)CCCC(=O)Nc1ccccn1,inactive
3,S=c1[nH]cc(-c2ccccc2)[nH]1,"inconclusive: 6.31 µM [inhibitor, full curve]"
4,CCCCNC(=S)NNC(=O)c1ccncc1,"inconclusive: 7.08 µM [inhibitor, partial curve]"
5,CC(=O)NNc1nc(-c2ccc(C)cc2)cs1,"inconclusive: 3.16 µM [inhibitor, full curve]"
6,CN(C)c1ccc(C(C(=O)NC2CCCC2)N(C(=O)c2ccco2)C2CC2)cc1 (stereo not given),"inconclusive: 50.1 µM [inhibitor, single point]"
7,Cc1nc2c3ccccc3nc(NNC(=O)CCC(=O)NCCN3CCN(c4ccccc4)CC3)n2n1,"inconclusive: 44.7 µM [inhibitor, single point]"
8,COc1ccc(CNCC(=O)Nc2ccccc2-n2cccc2)cc1,"inconclusive: 11.2 µM [inhibitor, single point]"
9,CCOCC(=O)Nc1c(C)n(C)n(-c2ccccc2)c1=O,inactive
10,COc1ccc(N2CCSC2C(=O)NN)cc1 (stereo not given),"inconclusive: 12.6 µM [inhibitor, partial curve]"
11,CC(C)(C)c1cc(CP(=O)(c2ccccc2)c2ccccc2)cc(C(C)(C)C)c1O,"inconclusive: 3.98 µM [inhibitor, full curve]"
12,C=CCn1c(CSc2nc3ccccc3s2)n[nH]c1=S,"inconclusive: 31.4 µM [inhibitor, single point]"
13,COC(=O)C1=C(C)N(C)C(=O)NC1c1cc2c(cc1[N+](=O)[O-])OCO2 (stereo not given),"inconclusive: 39.5 µM [inhibitor, single point]"
14,CCCCN(CC)CCNC(=O)CN1C(=O)COc2ccc(S(=O)(=O)N3CCCC3)cc21,"inconclusive: 5.62 µM [inhibitor, single point]"
15,Cc1ccc(-c2nc3cnccn3c2Nc2c(C)cccc2C)o1,active: 3.52 µM
16,ClCC1=Nc2cccc3cccc(c23)N1,"inconclusive: 4.47 µM [inhibitor, full curve]"
17,COc1cccc(NC(=O)COc2ccc(C(=O)N3CCN(C)CC3)cc2)c1,"inconclusive: 3.55 µM [inhibitor, partial curve]"
18,COc1ccc(N(CC(=O)NCc2ccccc2Cl)S(=O)(=O)c2c(C)nn(C)c2C)cc1,inactive
19,COc1cc(/C=C/C(=O)O)cc(S(=O)(=O)NCCCC(=O)O)c1OC,inactive
20,CN(C)CC/C=C1/c2ccccc2Sc2c(O)cc(Cl)cc21,"inconclusive: 20 µM [activator, partial curve]"
21,O=C(O)Cn1cc(/C=C2/NC(=O)N(c3ccc(Cl)cc3)C2=O)c2ccccc21,"inconclusive: 35.5 µM [inhibitor, single point]"
22,Oc1ccc(-c2cn3ccccc3n2)cc1O,"inconclusive: 3.14 µM [inhibitor, partial curve]"
23,CCOc1cccc(N2C(=O)CC(NNC(=O)c3ccc(Br)o3)C2=O)c1 (stereo not given),"inconclusive: 3.55 µM [inhibitor, full curve]"
24,CCCCOP(=O)(OCCCC)C(O)c1ccc(N(C)C)cc1 (stereo not given),"inconclusive: 17.8 µM [inhibitor, partial curve]"

row,Structure (SMILES),Potency
1,O=C1CC(NNc2ccccc2)C(=O)N1c1ccc(N2CCCCC2)cc1 (stereo not given),"inconclusive: 35.5 µM [activator, partial curve]"
2,CCC1CN(C(=O)N2CCC(C(=O)NCCc3ccccc3Cl)CC2)c2cc(C)ccc2O1 (stereo not given),inactive
3,CN1/C(=C/C(=S)NC(=O)C2(C)CC2(Cl)Cl)C(C)(C)c2ccccc21 (stereo not given),"inconclusive: 44.7 µM [inhibitor, single point]"
4,O=C1/C(=C\c2ccc(O)c(O)c2)C(c2ccccc2)=NN1c1ccccc1,active: 3.98 µM
5,Cc1cccc(Nc2nnc(SCC(=O)c3ccc(Br)s3)s2)c1C,"inconclusive: 22.4 µM [inhibitor, partial curve]"
6,Cc1cccc(N/N=C/c2ccncc2)c1,"inconclusive: 7.03 µM [inhibitor, partial curve]"
7,CCOc1ccc(S(=O)(=O)N2CCCC(C(=O)Nc3cccc(C)c3)C2)cc1 (stereo not given),"inconclusive: 50.1 µM [inhibitor, single point]"
8,COc1cc(/C=C/C(=O)OCC(=O)Nc2cc(S(=O)(=O)N3CCCCC3)ccc2C)ccc1O,"inconclusive: 17.8 µM [inhibitor, partial curve]"
9,Cc1occc1-c1nnc(SCCCC(=O)c2ccc(F)cc2)n1C,inactive
10,Cc1cccc(NCC(=O)N/N=C\c2cccn2C)c1,"inconclusive: 39.8 µM [inhibitor, single point]"
11,CCN(CC)c1ccc(N=CN2CCOCC2)cc1,"inconclusive: 11.2 µM [inhibitor, partial curve]"
12,CC(=O)N1CCc2nc3sc(C(=O)c4ccc(F)cc4)c(N)c3c(C(F)(F)F)c2C1,inactive
13,O=C(NO)c1ccccc1O,"inconclusive: 9.92 µM [inhibitor, partial curve]"
14,O=C(N/N=C/c1cccnc1)c1cccs1,inactive
15,Nn1cnnc1N/N=C/c1ccc(F)cc1,"inconclusive: 50.1 µM [inhibitor, single point]"
16,O=C(NNC(=S)NC1CC2C=CC1C2)c1cccnc1 (stereo not given),"inconclusive: 28 µM [inhibitor, single point]"
17,O=C(CN1c2ccccc2Sc2ccccc21)NNC(=S)Nc1ccc(Cl)cc1Cl,"inconclusive: 50.1 µM [inhibitor, single point]"
18,CCOc1ccc(-c2ncnn2-c2sc3c(c2C#N)CCCCC3)cc1,"inconclusive: 31.6 µM [inhibitor, single point]"
19,CCOC(=O)c1c(C)n(C)c2ccc(O)c(CN3CCCCC3)c12,"inconclusive: 3.95 µM [inhibitor, partial curve]"
20,CCOc1ccc(C(=O)N2CCN(Cc3ccccc3)CC2)cc1,inactive
21,Fc1ccccc1COc1ccc(Br)cc1CNCc1cccnc1,inactive
22,COc1ccc(CCN(C(=O)c2ccco2)C(C(=O)NC2CCCC2)c2ccncc2)cc1OC (stereo not given),"inconclusive: 12.5 µM [inhibitor, single point]"
